# The list shows a part of the results.
# B1: Pwp4 (Candida glabrata) (protein)
# chain: MGSSHHHHHHSSGLVPRGSHMASVGNPITVSNVCSFPKNWHRTAGFRALTARLGIGIQSDSYKELLNYPGTFQLTTQQSSTTKPNFQISGLVGNIYGLTIVPSYLLVELTGYFVPPVSGEYTFSLEGSDDAAIIFIANPSTFKCGHVEDWPTAYDNDVTVTESIHATRTIYMIEGVAYPIRIAYYNGLSLGKLQASFTDPEGVKRVDWNGYIWRYDSCDTCSYV
# Experiments:
# Assay in all cases: glycan array binding signal (z-score within array); higher = stronger binding
# Conditions in all cases: glycan notation: IUPAC condensed, linker removed
# Fuc(a1-2)Gal = target: Fuc(a1-2)Gal
# Procedure, shortened: (§1)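 The Consortium for Functional Glycomics database supplied 3228 glycan arrays, of which those lacking an available protein sequence were dropped. The binding signal, a within-array Z-score, was averaged across arrays of the same protein sequence and across linkers. Negative scores can be read as non-binding.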
# Fuc(a1-2)Gal(b1-3)GalNAc = target: Fuc(a1-2)Gal(b1-3)GalNAc
# Procedure, shortened: as §1
# [1] = target: Fuc(a1-2)Gal(b1-3)GalNAc(a1-3)[Fuc(a1-2)]Gal(b1-4)Glc
# Procedure, shortened: as §1
# [2] = target: Fuc(a1-2)Gal(b1-3)GalNAc(a1-3)[Fuc(a1-2)]Gal(b1-4)GlcNAc
# Procedure, shortened: as §1
# [3] = target: Fuc(a1-2)Gal(b1-3)GalNAc(b1-3)Gal
# Procedure, shortened: as §1
# [4] = target: Fuc(a1-2)Gal(b1-3)GalNAc(b1-3)Gal(a1-4)Gal(b1-4)Glc
# Procedure, shortened: as §1
# [5] = target: Fuc(a1-2)Gal(b1-3)GalNAc(b1-4)[Neu5Ac(a2-3)]Gal(b1-4)Glc
# Procedure, shortened: as §1
# Fuc(a1-2)Gal(b1-3)GlcNAc = target: Fuc(a1-2)Gal(b1-3)GlcNAc
# Procedure, shortened: as §1
# [6] = target: Fuc(a1-2)Gal(b1-3)GlcNAc(b1-2)Man(a1-3)[Fuc(a1-2)Gal(b1-3)GlcNAc(b1-2)Man(a1-6)]Man(b1-4)GlcNAc(b1-4)GlcNAc
# Procedure, shortened: as §1
# [7] = target: Fuc(a1-2)Gal(b1-3)GlcNAc(b1-2)Man(a1-3)[Fuc(a1-2)Gal(b1-3)GlcNAc(b1-2)Man(a1-6)]Man(b1-4)GlcNAc(b1-4)[Fuc(a1-6)]GlcNAc
# Procedure, shortened: as §1
# [8] = target: Fuc(a1-2)Gal(b1-3)GlcNAc(b1-3)Gal(b1-4)Glc
# Procedure, shortened: as §1
# [9] = target: Fuc(a1-2)Gal(b1-3)GlcNAc(b1-3)GalNAc
# Procedure, shortened: as §1
# [10] = target: Fuc(a1-2)Gal(b1-3)GlcNAc(b1-3)[Fuc(a1-2)Gal(b1-3)GlcNAc(b1-6)]GalNAc
# Procedure, shortened: as §1
# [11] = target: Fuc(a1-2)Gal(b1-3)GlcNAc(b1-3)[Gal(b1-4)GlcNAc(b1-6)]Gal(b1-4)Glc
# Procedure, shortened: as §1
# [12] = target: Fuc(a1-2)Gal(b1-3)GlcNAc(b1-3)[Neu5Ac(a2-6)Gal(b1-4)GlcNAc(b1-6)]Gal(b1-4)Glc
# Procedure, shortened: as §1
# [13] = target: Fuc(a1-2)Gal(b1-3)GlcNAc6S
# Procedure, shortened: as §1
# [14] = target: Fuc(a1-2)Gal(b1-3)[Fuc(a1-4)]GlcNAc
# Procedure, shortened: as §1
# [15] = target: Fuc(a1-2)Gal(b1-3)[Fuc(a1-4)]GlcNAc(b1-2)Man(a1-3)[Fuc(a1-2)Gal(b1-3)[Fuc(a1-4)]GlcNAc(b1-2)Man(a1-3)]Man(b1-4)GlcNAc(b1-4)GlcNAc
# Procedure, shortened: as §1
# [16] = target: Fuc(a1-2)Gal(b1-3)[Fuc(a1-4)]GlcNAc(b1-2)Man(a1-3)[Fuc(a1-2)Gal(b1-3)[Fuc(a1-4)]GlcNAc(b1-2)Man(a1-6)]Man(b1-4)GlcNAc(b1-4)[Fuc(a1-6)]GlcNAc(b1-4)[Fuc(a1-6)]GlcNAc
# Procedure, shortened: as §1
# [17] = target: Fuc(a1-2)Gal(b1-3)[Fuc(a1-4)]GlcNAc(b1-3)[Fuc(a1-3)[Gal(b1-4)]GlcNAc(b1-6)]Gal(b1-4)Glc
# Procedure, shortened: as §1
# [18] = target: Fuc(a1-2)Gal(b1-3)[Fuc(a1-4)]GlcNAc(b1-3)[Gal(b1-4)GlcNAc(b1-6)]Gal(b1-4)Glc
# Procedure, shortened: as §1
# Fuc(a1-2)Gal(b1-4)Glc = target: Fuc(a1-2)Gal(b1-4)Glc
# Procedure, shortened: as §1
# Fuc(a1-2)Gal(b1-4)Glc6S = target: Fuc(a1-2)Gal(b1-4)Glc6S
# Procedure, shortened: as §1
# Fuc(a1-2)Gal(b1-4)GlcNAc = target: Fuc(a1-2)Gal(b1-4)GlcNAc
# Procedure, shortened: as §1
# [19] = target: Fuc(a1-2)Gal(b1-4)GlcNAc(b1-2)Man
# Procedure, shortened: as §1
# [20] = target: Fuc(a1-2)Gal(b1-4)GlcNAc(b1-2)Man(a1-3)[Fuc(a1-2)Gal(b1-4)GlcNAc(b1-2)Man(a1-6)]Man(b1-4)GlcNAc(b1-4)GlcNAc
# Procedure, shortened: as §1
# [21] = target: Fuc(a1-2)Gal(b1-4)GlcNAc(b1-2)Man(a1-3)[Fuc(a1-2)Gal(b1-4)GlcNAc(b1-2)Man(a1-6)]Man(b1-4)GlcNAc(b1-4)[Fuc(a1-6)]GlcNAc
# Procedure, shortened: as §1
# [22] = target: Fuc(a1-2)Gal(b1-4)GlcNAc(b1-2)[Fuc(a1-2)Gal(b1-4)GlcNAc(b1-4)]Man(a1-3)[Fuc(a1-2)Gal(b1-4)GlcNAc(b1-2)Man(a1-6)]Man(b1-4)GlcNAc(b1-4)GlcNAc
# Procedure, shortened: as §1
# [23] = target: Fuc(a1-2)Gal(b1-4)GlcNAc(b1-3)Gal(b1-4)GlcNAc
# Procedure, shortened: as §1
# [24] = target: Fuc(a1-2)Gal(b1-4)GlcNAc(b1-3)Gal(b1-4)GlcNAc(b1-2)Man(a1-3)[Fuc(a1-2)Gal(b1-4)GlcNAc(b1-3)Gal(b1-4)GlcNAc(b1-2)Man(a1-6)]Man(b1-4)GlcNAc(b1-4)GlcNAc
# Procedure, shortened: as §1
# [25] = target: Fuc(a1-2)Gal(b1-4)GlcNAc(b1-3)Gal(b1-4)GlcNAc(b1-3)Gal(b1-4)GlcNAc
# Procedure, shortened: as §1
# [26] = target: Fuc(a1-2)Gal(b1-4)GlcNAc(b1-3)GalNAc
# Procedure, shortened: as §1
# [27] = target: Fuc(a1-2)Gal(b1-4)GlcNAc(b1-3)[Fuc(a1-2)Gal(b1-4)GlcNAc(b1-6)]GalNAc
# Procedure, shortened: as §1
# [28] = target: Fuc(a1-2)Gal(b1-4)GlcNAc(b1-3)[Fuc(a1-3)[Gal(b1-4)]GlcNAc(b1-6)]Gal(b1-4)Glc
# Procedure, shortened: as §1
# [29] = target: Fuc(a1-2)Gal(b1-4)GlcNAc(b1-6)GalNAc
# Procedure, shortened: as §1
# [30] = target: Fuc(a1-2)Gal(b1-4)GlcNAc6S
# Procedure, shortened: as §1
# [31] = target: Fuc(a1-2)Gal(b1-4)[Fuc(a1-3)]GlcNAc
# Procedure, shortened: as §1
# [32] = target: Fuc(a1-2)Gal(b1-4)[Fuc(a1-3)]GlcNAc(b1-2)Man(a1-3)[Fuc(a1-2)Gal(b1-4)[Fuc(a1-3)]GlcNAc(b1-2)Man(a1-6)]Man(b1-4)GlcNAc(b1-4)[Fuc(a1-6)]GlcNAc
# Procedure, shortened: as §1
# [33] = target: Fuc(a1-2)Gal(b1-4)[Fuc(a1-3)]GlcNAc(b1-2)[Fuc(a1-2)Gal(b1-4)[Fuc(a1-3)]GlcNAc(b1-4)]Man(a1-3)[Fuc(a1-2)Gal(b1-4)[Fuc(a1-3)]GlcNAc(b1-2)Man(a1-6)]Man(b1-4)GlcNAc(b1-4)GlcNAc
# Procedure, shortened: as §1
# [34] = target: Fuc(a1-2)Gal(b1-4)[Fuc(a1-3)]GlcNAc(b1-3)Gal(b1-4)[Fuc(a1-3)]GlcNAc
# Procedure, shortened: as §1
# [35] = target: Fuc(a1-2)Gal(b1-4)[Fuc(a1-3)]GlcNAc(b1-3)Gal(b1-4)[Fuc(a1-3)]GlcNAc(b1-3)Gal(b1-4)[Fuc(a1-3)]GlcNAc
# Procedure, shortened: as §1
# [36] = target: Fuc(a1-2)Gal(b1-4)[Fuc(a1-3)]GlcNAc(b1-3)GalNAc
# Procedure, shortened: as §1
# [37] = target: Fuc(a1-2)Gal(b1-4)[Fuc(a1-3)]GlcNAc(b1-3)[Neu5Ac(a2-6)Gal(b1-4)GlcNAc(b1-6)]Gal(b1-4)Glc
# Procedure, shortened: as §1
# [38] = target: Fuc(a1-2)Gal3S(b1-4)GlcNAc
# Procedure, shortened: as §1
# [39] = target: Fuc(a1-2)Gal6S(b1-3)GlcNAc
# Procedure, shortened: as §1
binder,measurement,setting,value
B1,glycan array binding signal (z-score),Fuc(a1-2)Gal,-0.516
same,glycan array binding signal (z-score),Fuc(a1-2)Gal(b1-3)GalNAc,0.041
same,glycan array binding signal (z-score),[1],-0.7
same,glycan array binding signal (z-score),[2],0.36
same,glycan array binding signal (z-score),[3],0.223
same,glycan array binding signal (z-score),[4],-0.514
same,glycan array binding signal (z-score),[5],-0.446
same,glycan array binding signal (z-score),Fuc(a1-2)Gal(b1-3)GlcNAc,-0.913
same,glycan array binding signal (z-score),[6],0.141
same,glycan array binding signal (z-score),[7],-0.308
same,glycan array binding signal (z-score),[8],-0.652
same,glycan array binding signal (z-score),[9],-0.453
same,glycan array binding signal (z-score),[10],-0.28
same,glycan array binding signal (z-score),[11],-0.496
same,glycan array binding signal (z-score),[12],-0.546
same,glycan array binding signal (z-score),[13],-0.411
same,glycan array binding signal (z-score),[14],-0.432
same,glycan array binding signal (z-score),[15],-0.045
same,glycan array binding signal (z-score),[16],0.426
same,glycan array binding signal (z-score),[17],-0.715
same,glycan array binding signal (z-score),[18],-0.507
same,glycan array binding signal (z-score),Fuc(a1-2)Gal(b1-4)Glc,-0.568
same,glycan array binding signal (z-score),Fuc(a1-2)Gal(b1-4)Glc6S,-0.379
same,glycan array binding signal (z-score),Fuc(a1-2)Gal(b1-4)GlcNAc,-0.001
same,glycan array binding signal (z-score),[19],-0.355
same,glycan array binding signal (z-score),[20],-0.263
same,glycan array binding signal (z-score),[21],0.039
same,glycan array binding signal (z-score),[22],1.93
same,glycan array binding signal (z-score),[23],0.424
same,glycan array binding signal (z-score),[24],-0.108
same,glycan array binding signal (z-score),[25],-0.257
same,glycan array binding signal (z-score),[26],-0.404
same,glycan array binding signal (z-score),[27],-0.48
same,glycan array binding signal (z-score),[28],0.55
same,glycan array binding signal (z-score),[29],-0.365
same,glycan array binding signal (z-score),[30],-0.4
same,glycan array binding signal (z-score),[31],-0.67
same,glycan array binding signal (z-score),[32],0.141
same,glycan array binding signal (z-score),[33],-0.097
same,glycan array binding signal (z-score),[34],0.356
same,glycan array binding signal (z-score),[35],1.61
same,glycan array binding signal (z-score),[36],0.139
same,glycan array binding signal (z-score),[37],-0.578
same,glycan array binding signal (z-score),[38],0.895
same,glycan array binding signal (z-score),[39],-0.52
